# Experimental data published in a collection of fitness landscapes (doi:10.1126/science.1257360).
# Some of the results follow.
# B1: PhoQ; a variant is named by its letters at X, in order, P23837 (parent)
# chain: MKKLLRLFFPLSLRVRFLLATAAVVLVLSLAYGMVALIGYSVSFDKTTFRLLRGESNLFYTLAKWENNKLHVELPENIDKQSPTMTLIYDENGQLLWAQRDVPWLMKMIQPDWLKSNGFHEIEADVNDTSLLLSGDHSIQQQLQEVREDDDDAEMTHSVAVNVYPATSRMPKLTIVVVDTIPVELKSSYMVWSWFIYVLSANLLLVIPLLWVAAWWSLRPIEALAKEVRELEEHNRELLNPATTRELTSLVRNLNRLLKSERERYDKYRTTLTDLTHSLKTPLXXLQXXLRSLRSEKMSVSDAEPVMLEQISRISQQIGYYLHRASMRGGTLLSRELHPVAPLLDNLTSALNKVYQRKGVNISLDISPEISFVGEQNDFVEVMGNVLDNACKYCLEFVEISARQTDEHLYIVVEDDGPGIPLSKREVIFDRGQRVDTLRPGQGVGLAVAREITEQYEGKIVAGESMLGGARMEVIFGRQHSAPKDE
# Variants of: B1
# Assay: enrichment ratio after two sorts for PhoP signalling (ratio (wild type AVST 3.29)); higher = more functional
# Conditions: with PhoP (E. coli)
row,Variant,enrichment ratio
1,THYS,≤ 0.25
2,RREF,≤ 0.25
3,AEQS,≤ 0.25
4,DKQV,≤ 0.25
5,EFWF,≤ 0.25
6,HERM,≤ 0.25
7,SADF,≤ 0.25
8,QALL,11.2
9,VHWS,≤ 0.25
10,GRRI,≤ 0.25
11,IRLA,0.272
12,MVVC,≤ 0.25
13,GRDT,≤ 0.25
14,KTRS,≤ 0.25
15,QGRD,≤ 0.25
16,VSKL,≤ 0.25
17,LRRL,≤ 0.25
18,FPSD,≤ 0.25
19,YWDF,≤ 0.25
20,HTNG,5.74
21,IGWT,0.459
22,TVTI,7.06
23,FRIC,≤ 0.25
24,HMWD,≤ 0.25
25,DGYY,≤ 0.25

row,Variant,enrichment ratio
1,EMRE,≤ 0.25
2,QEMT,5.12
3,YHQY,≤ 0.25
4,PDQG,≤ 0.25
5,NFYY,≤ 0.25
6,DKRY,≤ 0.25
7,ITLF,1.07
8,PKDQ,≤ 0.25
9,GTSA,≤ 0.25
10,VFPG,≤ 0.25
11,ELCQ,≤ 0.25
12,MMIT,≤ 0.25
13,WLCT,≤ 0.25
14,DNEP,≤ 0.25
15,WPWL,≤ 0.25
16,SHSH,0.368
17,GFKH,≤ 0.25
18,KAPT,≤ 0.25
19,MFQC,≤ 0.25
20,VHRP,≤ 0.25
21,LQNS,≤ 0.25
22,ATHR,≤ 0.25
23,HLVT,≤ 0.25
24,IWVC,≤ 0.25
25,IWIS,≤ 0.25

row,Variant,enrichment ratio
1,ESLN,≤ 0.25
2,YIVV,≤ 0.25
3,FPEN,≤ 0.25
4,DYFH,≤ 0.25
5,TDHR,≤ 0.25
6,EDTC,≤ 0.25
7,FMFV,≤ 0.25
8,DAHE,≤ 0.25
9,LRSL,≤ 0.25
10,AQMH,≤ 0.25
11,RAER,≤ 0.25
12,MYFG,≤ 0.25
13,LNFQ,≤ 0.25
14,LFVS,≤ 0.25
15,YVAK,≤ 0.25
16,MLPV,≤ 0.25
17,ASSW,≤ 0.25
18,LCCG,≤ 0.25
19,SDET,≤ 0.25
20,GATL,6.3
21,VLYS,≤ 0.25
22,YLRH,≤ 0.25
23,KALY,≤ 0.25
24,GCVH,≤ 0.25
25,WPFA,≤ 0.25

row,Variant,enrichment ratio
1,TEID,≤ 0.25
2,KRKV,≤ 0.25
3,GYAI,≤ 0.25
4,SFHY,≤ 0.25
5,LPIW,≤ 0.25
6,EGPY,≤ 0.25
7,RWMG,≤ 0.25
8,NEQL,≤ 0.25
9,INDR,≤ 0.25
10,PHQD,≤ 0.25
11,IHHN,≤ 0.25
12,ESRN,≤ 0.25
13,YLQI,0.285
14,TSAV,16.5
15,GRMS,≤ 0.25
16,WIRH,≤ 0.25
17,VDLP,≤ 0.25
18,YQCW,≤ 0.25
19,SSWE,≤ 0.25
20,FVIV,≤ 0.25
21,TNRL,≤ 0.25
22,TELL,16.9
23,SETL,14.8
24,LLAY,≤ 0.25
25,TFQM,≤ 0.25

row,Variant,enrichment ratio
1,EAKP,≤ 0.25
2,YTPV,≤ 0.25
3,TMPG,≤ 0.25
4,PWYT,≤ 0.25
5,IRHE,≤ 0.25
6,LFFH,≤ 0.25
7,WYGA,≤ 0.25
8,SHHC,≤ 0.25
9,SQAE,≤ 0.25
10,AMAA,1.39
11,PQTE,≤ 0.25
12,DLRY,≤ 0.25
13,YSGV,≤ 0.25
14,GFNE,≤ 0.25
15,VDAR,≤ 0.25
16,NKNC,≤ 0.25
17,MGQP,≤ 0.25
18,ICCK,≤ 0.25
19,SEVY,3.24
20,KATM,≤ 0.25
21,MKYG,≤ 0.25
22,FYCI,≤ 0.25
23,ECME,≤ 0.25
24,YEDV,≤ 0.25
25,KKKA,≤ 0.25

row,Variant,enrichment ratio
1,WTLN,≤ 0.25
2,TWSN,≤ 0.25
3,TGWY,7.1
4,AYMV,0.333
5,KVKG,≤ 0.25
6,HHLF,≤ 0.25
7,MRKW,≤ 0.25
8,EFPA,≤ 0.25
9,ARDT,≤ 0.25
10,LNHI,≤ 0.25
11,KRLQ,≤ 0.25
12,CLDF,≤ 0.25
13,TVAA,20.7
14,EPVL,≤ 0.25
15,LYIG,≤ 0.25
16,KKFK,≤ 0.25
17,ERRL,≤ 0.25
18,YTIA,≤ 0.25
19,IAQL,≤ 0.25
20,GPFS,≤ 0.25
21,NCVM,≤ 0.25
22,RCCL,≤ 0.25
23,IFRR,≤ 0.25
24,DKEV,≤ 0.25
25,WTIN,≤ 0.25

row,Variant,enrichment ratio
1,VERW,≤ 0.25
2,TQME,17.2
3,TKMC,77.6
4,FIDW,≤ 0.25
5,VTVD,≤ 0.25
6,ILRA,≤ 0.25
7,SRPH,≤ 0.25
8,ANGT,4.82
9,FERH,≤ 0.25
10,FYYY,≤ 0.25
11,WWCS,≤ 0.25
12,NHPT,≤ 0.25
13,ESAG,≤ 0.25
14,SSGP,≤ 0.25
15,TPDL,≤ 0.25
16,PCTK,≤ 0.25
17,NFSR,≤ 0.25
18,VVSA,≤ 0.25
19,AATN,8
20,LLLL,≤ 0.25
21,IWED,≤ 0.25
22,CRLN,≤ 0.25
23,VRVQ,≤ 0.25
24,LEGD,≤ 0.25
25,FNDD,≤ 0.25

row,Variant,enrichment ratio
1,GQAV,≤ 0.25
2,MMIW,≤ 0.25
3,WFTQ,≤ 0.25
4,PPWM,≤ 0.25
5,YIAK,≤ 0.25
6,YECE,≤ 0.25
7,RYQC,≤ 0.25
8,AWNH,≤ 0.25
9,IHPN,≤ 0.25
10,DKPE,≤ 0.25
11,IQTI,≤ 0.25
12,PKEL,≤ 0.25
13,LNQW,≤ 0.25
14,TIVR,≤ 0.25
15,YLPI,≤ 0.25
16,NLRN,≤ 0.25
17,IQWF,≤ 0.25
18,SFIA,≤ 0.25
19,NNDF,≤ 0.25
20,MQSG,1.28
